About 1,700 (3.3%) of roughly 52,000 compounds were called active. Rule as the data show it: active = survival mostly below about 52% (no sharp cut-off); inactive = mostly above about 56%. Some of the results follow.

The subject of this assay is Wild type. Description: S. aureus survival, RN4220 and DeltatarO strains – OD600, teichoic acid synthesis inhibitors, primary screen (AID 463173). As to conditions: S. aureus RN4220 wild type/DeltatarO growth, OD600, 18 h, stronger effect = lower value, screened at 18.75 µg/mL (by protocol).
Take `Cc1ccc(NC(=O)CN2C(=O)COc3ccc(S(=O)(=O)N4CCCCC4)cc32)cc1N(C)C`: the survival is inactive: 106%.
On to `COC(=O)c1cccnc1-n1c(=O)c2cccnc2n(CC(=O)Nc2c(C)cc(C)cc2C)c1=O`, for which the survival is inactive: 66%.
In the case of `CC(=O)N1CCN(c2nc(C3CC3)nc3sc4c(c23)CCCC4)CC1`, the survival was inactive: 110%.
The result for `O=C(Cn1ncn2nc(-c3cccs3)cc2c1=O)NCc1cccc(Br)c1` reads inactive: 89%; that for `Nc1c(C(=O)c2ccc(F)cc2)sc(Nc2ccccc2F)c1S(=O)(=O)c1ccc(Br)cc1`, inactive: 74%.
Take `Cc1cccc(CNC(=O)c2ccc(NC(=O)N3CC(C)Sc4ccccc43)cc2)c1` (configuration not stated): the survival is inactive: 72%.
Regarding `CC(C)CN(CCNC(=O)CN1C(=O)CSc2ccc(S(=O)(=O)N3CCOCC3)cc21)CC(C)C`, the survival was inactive: 68%.
Regarding `CCOc1ccc(S(=O)(=O)N(CC(=O)Nc2ccc3c(c2)OCO3)c2ccccc2)cc1`, the survival was inactive: 96%.
Under `Cc1ccc(NC(=O)Cn2c(=O)n(-c3ccccc3)c(=O)c3ccc(C(=O)NCc4ccc5c(c4)OCO5)cc32)c(C)c1` stands inactive: 138%; under `COc1ccccc1CNC(=O)c1ccc2c(c1)CCN2S(=O)(=O)c1ccccc1`, inactive: 89%; under `O=C(Nc1c(-c2ccc(F)cc2)nc2ccccn12)c1ccccc1F`, inactive: 127%.
Take `O=C(/C=C\c1ccc2c(c1)OCO2)NC1CC(=O)N(c2cccc(F)c2)C1` (configuration not stated): the survival is inactive: 60%.
Regarding `CCOC(=O)c1cccc(NC(=O)c2ccc3nc(Cc4ccccc4)oc3c2)c1`, the survival was inactive: 69%.
As to `N#Cc1c2c(c(N3CCOCC3)[nH]c1=S)CCCC2`, the survival was inactive: 110%.
Take `Cc1ccc(-n2c3c(c(=O)[nH]c2=O)C(NC(=O)c2ccccc2C)(C(F)(F)F)C(=O)N3)cc1` (configuration not stated): the survival is inactive: 85%.
As for `COc1ccccc1C(=O)NCCN1CCCC1`, the survival is inactive: 111%.
`COc1ccccc1N1CCN(C(=O)CSc2n[nH]c(-c3ccccc3)n2)CC1`: the survival is inactive: 63%.
As to `Cc1cc2ccccc2n1-c1ccc(C(=O)N2CCC(C(=O)NCc3ccccc3Cl)CC2)s1`, the survival was inactive: 60%.
Regarding `CC(CNC(=O)Cc1ccc(NC(=O)N2CCSc3ncccc32)cc1)c1ccccc1` (configuration not stated), the survival was inactive: 73%.
With `CCOC(=O)C1=C(CN2CCN(c3ccccc3F)CC2)NC(=O)NC1c1ccc(Cl)cc1` (configuration not stated), the survival is inactive: 76%.
Regarding `COc1ccc(-c2cn3c(n2)sc2cc(C(=O)Nc4cccc(OC)c4)ccc23)cc1`, the survival is inactive: 86%.
For `COC(=O)c1scc(-c2ccc(C)cc2)c1S(=O)(=O)Nc1ccc(N(C)C)cc1`, the survival is inactive: 123%.
In the case of `Cc1ccccc1NCc1cccn1-c1nnc(N2CCC(C)CC2)s1`, the survival was inactive: 68%.
Consider `Cc1nc2c(-c3ccccc3)c(C)nn2c(C)c1CCC(=O)NCc1ccc(F)cc1`, for which the survival is inactive: 75%.
Take `Cc1c(Cl)cccc1-n1nc(C)c2c(C(=O)NCc3ccccc3)cc(C3CC3)nc21`: the survival was inactive: 73%.
Under `CCOc1ccc(NC(=O)CC2C(=O)N(c3ccccc3)C(=O)N2Cc2ccc3c(c2)OCO3)cc1` (configuration not stated) stands inactive: 69%; under `Cc1ccc(CNC(=O)C2CCN(S(=O)(=O)c3cc(-c4noc(C)n4)ccc3C)CC2)cc1`, inactive: 136%.
Take `Cn1c(=O)oc2cc(S(=O)(=O)Nc3ccccc3O)ccc21`: the survival is inactive: 125%.
As for `Cc1ccc(C(=O)Nc2nccs2)c(C)c1`, the survival was inactive: 105%.
Under `O=S(=O)(NC1CC1)c1ccc(S(=O)(=O)N2CCC3(CC2)OCCO3)cc1` stands inactive: 103%; under `O=C(NCc1ccc(Cl)cc1)C1CCN(S(=O)(=O)Cc2ccccc2)CC1`, inactive: 86%.
For the compound `COc1ccc(-c2cc(C(F)(F)F)nc(SCC(=O)N3CCC(C)CC3)n2)cc1`, the survival is inactive: 55%.
Turning to `Cc1ccc(-c2cc(NC(=O)COc3ccc(Cl)cc3C)on2)cc1`, the survival is inactive: 89%.
Turning to `CCOc1ccc(CCNC(=O)c2cc3c(s2)-c2ccccc2OC3)cc1OCC`, the survival is inactive: 90%.
With `O=c1c(-c2ccc(Cl)cc2)c(C(F)(F)F)oc2c(CN3CCCCC3)c(O)ccc12`, the survival was inactive: 126%.
The result for `CCCC(CCC)C(=O)Nc1cc(-c2cn3cccnc3n2)ccc1OC` reads inactive: 82%.
Consider `CCc1ccc(N2C(=O)CSC23C(=O)N(Cc2ccc(C)cc2)c2ccccc23)cc1` (configuration not stated), for which the survival was inactive: 66%.
Under `O=C(O)CN1C(=O)CC(Cc2ccccc2)C1=O` (configuration not stated) stands inactive: 98%; under `Cc1ccccc1Nc1c(-c2ccc(Cl)s2)nc2cccc(C)n12`, inactive: 80%.
The result for `COc1ccc(S(=O)(=O)c2c(C)c(NS(=O)(=O)c3ccccc3)cc(C)c2O)cc1` reads inactive: 90%.
Turning to `O=C(CSc1nc2c(c(=O)[nH]1)CCC2)Nc1ccccc1C(F)(F)F`, the survival was inactive: 84%.
For `Cc1oc(-c2cccc(Cl)c2)nc1CN1CCC(C(=O)NCCCN2CCN(c3ccc(F)cc3)CC2)CC1`, the survival was inactive: 119%.
`COc1ccc(Cn2cc(C(=O)c3ccc(C)cc3)c(=O)c3cc(OC)c(OC)cc32)cc1`: the survival was inactive: 81%.
The result for `CCn1cc(C(=O)NCc2ccccc2)c(=O)c2cc(S(=O)(=O)N3CCc4ccccc4C3)ccc21` reads inactive: 77%.
The result for `CCOC(=O)C1CCCCN1S(=O)(=O)c1csc(C(N)=O)c1` (configuration not stated) reads inactive: 116%; that for `O=C(c1ccc2c(c1)CCCC2)N1CCN(c2nc3c(F)cccc3s2)CC1`, inactive: 72%; that for `COc1cc(C(c2c(C)[nH][nH]c2=O)c2c(C)[nH][nH]c2=O)ccc1OC(=O)c1cccc(C)c1`, inactive: 87%.
Regarding `Cc1ccc(C2=CC(c3ccccc3F)n3c(nc4ccccc43)N2)cc1C` (configuration not stated), the survival is inactive: 81%.
As to `COc1ccc(CC(=O)NCc2ccc3c(c2)CCN3C(=O)c2ccccc2)cc1OC`, the survival is inactive: 99%.
For the compound `CCOC(=O)CN1N=NC2C(=O)N(c3ccccc3)C(=O)C21` (configuration not stated), the survival was inactive: 102%.
Under `COc1ccc(C2=NC(c3ccncc3)=Nc3ccc(Br)cc3N2)cc1` stands inactive: 94%.
`CCOC(=O)C1CCN(C(c2cccnc2)c2nnnn2Cc2ccccc2)CC1` (configuration not stated): the survival is inactive: 98%.
On to `CCC1CN(Cc2ccccc2)CCC1=O` (configuration not stated), for which the survival is inactive: 122%.
Regarding `CN(C)c1ccc(-n2c(CCC(=O)O)ccc2-c2ccccc2)cc1`, the survival was inactive: 65%.
The result for `CCn1cc(C(=O)N2CCN(c3ccc(F)cc3)CC2)c(=O)c2cc(S(=O)(=O)N(C)C3CCCCC3)ccc21` reads inactive: 85%; that for `CC(C)(C)c1ccc(OCCn2cc(C(=O)c3ccco3)c3ccccc32)cc1`, inactive: 37%.
Consider `COc1ccccc1N1CCN(C(CNC(=O)C(=O)NCc2ccc(C)cc2)c2cccnc2)CC1` (configuration not stated), for which the survival is inactive: 78%.
As for `CCc1cccc(NC(=O)C2CCCN(S(=O)(=O)c3cccs3)C2)c1` (configuration not stated), the survival is inactive: 96%.
Regarding `Cc1ccc(NS(=O)(=O)c2ccc3c(c2)CC(C)N3C(=O)C2CCC2)cc1Cl` (configuration not stated), the survival was inactive: 73%.
On to `CCOc1ccccc1NC(=O)c1c(NC(=O)C(C)Oc2ccc(Cl)cc2)sc2c1CCCCC2` (configuration not stated), for which the survival was inactive: 69%.
The result for `COc1cc(Cl)c(C)cc1NC(=O)c1cc2c(Cl)nc3ccc(C)cc3c2s1` reads inactive: 80%; that for `Cc1cccc(-c2nc3c(c(SCc4ccccc4Cl)n2)Cc2c(CO)cnc(C)c2O3)c1`, inactive: 91%; that for `CC(C)CCn1c(=O)c2sccc2n2c(CCCC(=O)NC(C)C)nnc12`, inactive: 97%.
Regarding `COc1ccc(-c2nc3cc(C)ccn3c2NC(=O)c2ccc(C)c(C)c2)cc1`, the survival is inactive: 99%.
For `CCNC(=O)c1cnc2c(-c3ccccc3)c(C)nn2c1C`, the survival is active: 0%.
With `CNC(=O)CN1C(=O)c2cccnc2Sc2ccccc21`, the survival is inactive: 129%.
Under `CC(C)CC1N=C2c3ccccc3N=C(SCC(=O)NCCc3ccc(Cl)cc3)N2C1=O` (configuration not stated) stands inactive: 80%; under `COc1ccc(-n2c(=O)c3c4c(sc3n(Cc3ccccc3Cl)c2=O)CCC4)c(OC)c1`, inactive: 68%.
As to `Cc1cccc(OCC(=O)Nc2ccccc2OCc2cc(=O)n3ccccc3n2)c1`, the survival is inactive: 100%.
Regarding `COc1cccc(CNC(=O)CN(C)S(=O)(=O)c2ccc3[nH]c4c(c3c2)CCCC4)c1`, the survival was inactive: 83%.
Under `OCCNc1nc2nonc2nc1NCCO` stands inactive: 112%; under `COCc1[nH]nc2c1C(c1ccc(F)c(F)c1)C(C#N)=C(N)O2` (configuration not stated), inactive: 109%.
On to `Cc1ccc(CN2CCc3nc(N4CCN(c5ccccc5F)CC4)ncc3C2)cc1C`, for which the survival is inactive: 98%.
On to `Cc1cccc(C)c1-n1ncc(C(=O)Nc2ccc3c(c2)OCO3)c1C1CCN(C(=O)OC(C)(C)C)CC1`, for which the survival was inactive: 73%.
In the case of `COc1cccc(-c2cc(C(F)(F)F)nc(NCCc3ccccc3)n2)c1`, the survival is active: -7%.
`CCCCOc1ccc(CN2C(=O)C(=O)c3cc(Br)cc(C)c32)cc1OC`: the survival is inactive: 59%.
Consider `CCOc1ccccc1CNC(=O)C1CCCN(c2ncnc3onc(-c4ccc(F)cc4)c23)C1` (configuration not stated), for which the survival is inactive: 85%.
As for `O=C(NCc1ccccc1Cl)C1CCCN(C(=O)c2cnn(-c3ccccc3)c2-n2cccc2)C1` (configuration not stated), the survival was inactive: 83%.
Regarding `COc1ccccc1CCNC(=O)c1ccc2c(c1)c(C)c(C)n2Cc1ccc(Cl)cc1`, the survival was inactive: 77%.
As to `Cc1ccc2c(c1)-c1nc(-c3ccc4c(c3)NC(=O)CO4)cc(-c3ccc(F)cc3)c1CO2`, the survival is inactive: 82%.
Regarding `Cc1nc2c(C(=O)NCCc3ccc(Cl)cc3)c[nH]n2c(=O)c1Cc1ccc(Cl)cc1`, the survival was active: -14%.
The result for `COc1ccccc1C(=O)Nc1c(C(=O)N(C)Cc2ccccc2)sc2nc(C)c(Cl)c(C)c12` reads inactive: 78%; that for `COc1ccc(-c2noc(-c3ccc(N4CCN(C)CC4)c([N+](=O)[O-])c3)n2)cc1OC`, inactive: 81%; that for `Cc1cc(Br)ccc1NC(=O)C1CCN(S(=O)(=O)c2cccc3nsnc23)CC1`, inactive: 119%.
For `Cc1ccccc1-c1nnc(CN2CCN(c3ccccn3)CC2)o1`, the survival was inactive: 121%.
`Cc1cc(C)c(CO)c(C)c1CO`: the survival was inactive: 121%.
Take `COCCCNC(=O)C(=O)Nc1c2c(nn1-c1cccc(Cl)c1)CSC2`: the survival was inactive: 63%.
